From PubChem BioAssay AID1240 (Sanford-Burnham Center for Chemical Genomics, 2008)
In all, about 50,000 compounds went through this assay and about 800 (1.6%) showed an effect of 50% or more. The list shows a part of the results.

Target: Bcl-2-like protein 10 (Homo sapiens) (UniProt Q9HD36)
Experiment: TR3 peptide-Bcl-B binding displacers, biochemical primary FP assay, phenotype converters (AID 1240);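 note: 0% = Bcl-B with tracer peptide and DMSO and 100% = tracer peptide lacking Bcl-B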
Details: GST-Bcl-B / FITC-TR3 peptide fluorescence polarization; stronger effect = higher value; compound at 3.75 mg/L

Sequence of UniProt Q9HD36 (Q9HD36 whole entry, looked up): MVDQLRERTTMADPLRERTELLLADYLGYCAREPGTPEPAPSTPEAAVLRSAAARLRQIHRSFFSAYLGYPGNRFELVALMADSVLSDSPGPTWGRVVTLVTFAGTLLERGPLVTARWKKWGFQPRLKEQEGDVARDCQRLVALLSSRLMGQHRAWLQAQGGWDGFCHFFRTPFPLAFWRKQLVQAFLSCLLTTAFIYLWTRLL

| SMILES | displacement |
| --- | --- |
| CCCCNC(=O)Cn1nc(C(F)(F)F)c(Br)c1C | 5.8% |
| O=C1C(=O)N(c2ccccn2)C(c2cccnc2)/C1=C(/O)c1ccccc1 (stereo not drawn) | -14.6% |
| Cc1ccc(C2Nc3ccccc3NC3=C2C(=O)CC(c2ccc(Cl)cc2)C3)cc1[N+](=O)[O-] (stereo not drawn) | -8.5% |
| CCOC(=O)C(=O)Nc1c(O)c2ccccc2[nH]c1=O | 8.9% |
| CN1CCN(C2=NC(=O)/C(=C/c3ccc4c(c3)OCO4)S2)CC1 | 0.1% |
| Cc1cc2nc3s/c(=C/c4ccc5c(c4)OCO5)c(=O)n3c2cc1C | -11.4% |
| O=C1C(=O)N(c2nncs2)C(c2ccc(Cl)cc2)/C1=C(\O)c1ccc(F)cc1 (stereo not drawn) | 20.8% |
| O=C1/C(=C/c2ccccc2Cl)SC(=S)N1c1ccc(Br)cc1 | 16.9% |
| CCCCOc1ccc(C(=O)Nc2ccc(S(=O)(=O)Nc3nccc(C)n3)cc2)cc1 | -3.3% |
| N/C(=N/c1nc2ccccc2o1)NC(=O)c1sc2ccccc2c1Cl | 51.6% |
| COc1ccc(Br)cc1C(=O)Nc1cccc(S(N)(=O)=O)c1 | -0.9% |
| C/C(=N\Nc1nc(-c2ccc(C)cc2)nc2ccccc12)c1ccccc1 | -0.6% |
| Nc1ccc2c(c1)C1C=CCC1C(c1ccc([N+](=O)[O-])cc1)N2 (stereo not drawn) | 2.9% |
| Cc1ccc(-c2nc3cc(Cl)ccc3o2)cc1NS(=O)(=O)c1ccccc1 | -1.5% |
| COc1cc(C(=O)N/C(=C/c2ccc(N(C)C)cc2)C(=O)Nc2ccc(C)cc2)cc(OC)c1OC | 2.6% |
| COc1ccc(C2C3=C(CC(C)(C)CC3=O)Nc3ccccc3N2C(=O)c2ccc(Cl)cc2)cc1OC (stereo not drawn) | -7.8% |
| COc1cccc(CN2CCN(Cc3ccco3)CC2)c1 | -13.5% |
| CCOC(=O)c1[nH]c(C)c(C(=O)O)c1C | 5.2% |
| CC(=O)NN1C(=O)c2ccc(Oc3cccc([N+](=O)[O-])c3)cc2C1=O | 14% |
| Cc1cc(=O)[nH]c(SCC(=O)N2CCOCC2)n1 | 9.2% |
| O=C(NC(=S)Nc1ccc(F)cc1)c1ccc(Cl)cc1 | -3.2% |
| COc1ccc(CC(=O)N2N=C(c3ccc(F)cc3)CC2(O)C(F)(F)F)cc1OC (stereo not drawn) | -11.8% |
| Cc1ccccc1C(=O)Nc1cccc(NC(=O)c2ccccc2[N+](=O)[O-])c1 | 10.5% |

| SMILES | displacement |
| --- | --- |
| Cc1ccc(NC(=O)C(=O)Cc2ccc([N+](=O)[O-])cc2)c(C)c1 | -15.3% |
| COc1ccccc1NC(=O)COc1ccc(Br)cc1C(C)(C)C | 16.1% |
| CCOC(=O)C1NN=C(C(=O)c2ccc(OC)cc2)C1c1ccccc1Cl (stereo not drawn) | -7.7% |
| COc1ccc(NC(=O)n2nc(C(F)(F)F)nc2N)cc1 | -1.2% |
| O=C1N=C2C=CC=CN2C(=O)C1Cc1ccccc1 (stereo not drawn) | 6.9% |
| CCOC(=O)C1=C(N)Oc2c(ccc3ccccc23)C1c1ccc(OC)cc1 (stereo not drawn) | 108% |
| O=c1[nH]c(=S)[nH]c(O)c1C=Nc1ccccc1-c1ccccc1 | -1.6% |
| O=C(COc1ccc(Cl)cc1Cl)Oc1ccccc1[N+](=O)[O-] | -4.5% |
| O=C(CCN1CCCCC1)c1ccccc1 | -11% |
| CCOC(=O)C1=C(C)NC2=C(C(=O)c3ccccc32)C1c1ccc(OCc2ccccc2)cc1 (stereo not drawn) | 9% |
| COc1cc(C(=O)NCc2ccc(C(C)C)cc2)cc(OC)c1OC | -13% |
| O=C(N=Nc1c(O)n(CN2CCCC2)c2ccc(Br)cc12)c1ccncc1 | -1% |
| CC1(C)Cc2c(sc(NC(=O)COc3ccccc3)c2C#N)CS1 | -8.5% |
| Cc1ccc(-c2nnc(-c3ccc(F)cc3)o2)cc1 | 0.2% |
| Cc1ccc(NC(=O)c2ccc(C(=O)N(C(C)C)C(C)C)cc2)cc1 | 3.2% |
| O=C(COc1ccccc1Cl)Nc1cc(Cl)ccc1C(=O)O | 21.2% |
| CCOc1cc(/C=C2\SC(=S)N(NC(=O)c3cccc([N+](=O)[O-])c3)C2=O)ccc1O | -44.3% |
| O=C(Nc1ccc(OC(F)(F)F)cc1)c1cc2n(n1)C(C(F)(F)F)CC(c1cccs1)N2 (stereo not drawn) | 5.9% |
| COc1ccc(Cl)cc1N(CC(=O)NCCCC(C)(C)C1OCCO1)S(=O)(=O)c1ccc(C)c([N+](=O)[O-])c1 | -9.9% |
| COc1cccc(C(=O)Nc2ccc(OC)c(OC)c2)c1 | -6.1% |
| O=C(NN1C(=O)/C(=C/c2cccc(Br)c2)SC1=S)c1cccnc1 | -9.8% |
| Cc1cccc(/C=N/NC(=O)C2COc3ccccc3O2)c1O (stereo not drawn) | -3.6% |
| O=C(Nc1ccc(F)cc1)/C(=C\c1cccs1)NC(=O)c1ccccc1 | 7.5% |

| SMILES | displacement |
| --- | --- |
| O=C(CSc1nnc2c(n1)[nH]c1ccccc12)Nc1cccc2ccccc12 | -1.2% |
| CC1=CC(C)(C)N(C(=O)Nc2ccc(F)cc2)c2ccc(C)cc21 | 27.5% |
| COc1c(Br)cc2c(cc(C)n2C)c1O | -6% |
| N/C(=N/OC(=O)c1ccccc1F)c1nonc1N | 1.5% |
| Brc1ccc(-c2csc(NC3=NCCCCC3)n2)cc1 | 8.9% |
| Cc1nnc(C)n1/N=C/c1ccc(Br)cc1 | 12.9% |
| COc1ccc(-c2nnc(-c3cccs3)o2)cc1OC | -6.7% |
| COc1ccc(/C=C2\SC(=O)N(CCC(=O)Nc3cccc(C)c3)C2=O)cc1OC | 23.1% |
| O=C(CCNc1cccc(Cl)c1)c1cccs1 | 3.6% |
| COc1cc(C=NN2CCN(Cc3ccccc3Cl)CC2)ccc1OCc1ccccc1 | -4.7% |
| CC1=C/C(=N\N=C2\NC(=O)C(CC(=O)Nc3ccc(Cl)cc3)S2)CC(C)(C)C1 (stereo not drawn) | -2.1% |
| CCCC(=O)Nc1ccc(NC(=S)NC(=O)c2ccco2)cc1 | -10.2% |
| CCCc1c(C)c2cc(C)ccc2[nH]c1=O | -15.6% |
| CCOc1ccc(N(CC(=O)Nc2ccccc2OCC)S(=O)(=O)c2ccc(SC)cc2)cc1 | 15.2% |
| CCOC(=O)/C(C#N)=C1/C=C(c2ccccc2)N=C(c2ccccc2)N1 | 8.4% |
| CCOC(=O)COc1ccc(/C=C2\C(=O)NC(=O)N(c3cc(C)cc(C)c3)C2=O)cc1Br | -14% |
| O=C(/C=C/Nc1ccc(Cl)c([N+](=O)[O-])c1)c1ccccc1 | 1.9% |
| Nc1cccc(-c2cc(C(=O)O)c3ccccc3n2)c1 | 3.9% |
| COC(=O)C1=C(C)NC2=C(C(=O)c3ccccc32)C1c1cc2c(cc1Cl)OCO2 (stereo not drawn) | 9.7% |
| COc1ccc(/C(N)=N/OC(=O)c2ccc(I)cc2)cc1 | 8.8% |
| Cc1ccc(N2NC(=O)/C(=C/c3ccc(O)c(O)c3)C2=O)cc1C | 3.6% |
| O=c1c([N+](=O)[O-])c(-n2ccnc2)c2ccccc2n1-c1ccccc1 | -2.6% |
